Where a name gives a salt, the structure may show the parent alone. ± gives the standard deviation of the averaged measurements. Whole data set: some 2,600 compounds, median “MBP+ mature oligodendrocyte number relative to DMSO vehicle control” near -0.34, cut for the highest 2% near 13. Some of the results follow.
These compounds were tested on jimpy (Plp1 jimpy) mouse iPSC-derived oligodendrocyte progenitor cells (assay: MBP+ mature oligodendrocyte number relative to DMSO vehicle control (SDs above negative control mean); higher = more surviving jimpy oligodendrocytes (rescue)). Conditions: 10 µM; 3 days.
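Note: 10 µM single dose with 3-day oligodendrocyte differentiation.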

Compared with Cc1cc(NC(=O)Nc2ccc(N(C)C)cc2)c2cc(F)cc(F)c2n1, Cc1oncc1C(=O)Nc1ccc(C(F)(F)F)cc1 [Leflunomide] is lower in “MBP+ mature oligodendrocyte number” value: 29.4 for the first, -0.112 ± 0.19 for the second.

First: Cc1onc(-c2c(Cl)cccc2Cl)c1C(=O)N[C@@H]1C(=O)N2[C@@H]1SC(C)(C)[C@@H]2C(=O)O [Dicloxacillin Sodium]
Second: CC1(C)S[C@@H]2[C@H](NC(=O)[C@H](N)c3ccc(O)cc3)C(=O)N2[C@H]1C(=O)O [Amoxicillin Sodium]
The “MBP+ mature oligodendrocyte number” value of the first is higher: 0.829 for the first, 0.283 for the second.

CN(C)/N=N/c1[nH]cnc1C(N)=O [Dacarbazine] and Oc1ncnc2[nH]ncc12 [Allopurinol] are within error of each other in “MBP+ mature oligodendrocyte number” value: 3.95 for the first, 2.67 ± 4.6 for the second.

Going from CCCCCC[C@@H]([C@@H](C)O)n1cnc2c(N)ncnc21 [erythro-9-(2-Hydroxy-3-nonyl)adenine hydrochloride] to Nc1nc(Cl)nc2c1ncn2[C@H]1C[C@H](O)[C@@H](CO)O1 [Cladribine], the “MBP+ mature oligodendrocyte number” value falls from 3.38 to under -6.7.

First: CC1C(=O)OC2C(O)C34C5CC(C(C)(C)C)C36C(OC(=O)C6O)OC4(C(=O)O5)C12O (configuration not stated) [Ginkgolide B]
Second: COc1cccc2c1C(=O)c1c(O)c3c(c(O)c1C2=O)C[C@@](O)(C(=O)CO)C[C@@H]3O[C@H]1C[C@H](N)[C@H](O)[C@H](C)O1 [Doxorubicin (Adriamycin)]
The “MBP+ mature oligodendrocyte number” value of the first is higher: 1.68 for the first, -5.74 for the second.

Compared with C[N+](C)(C)CCCCCC[N+](C)(C)C [Hexamethonium dichloride], CCCCCCCCc1ccc(-c2ccc(C(=O)O)cc2)cc1 is lower in “MBP+ mature oligodendrocyte number” value: 0.45 for the first, -0.675 for the second.

Compared with C[N+](C)(C)CCCCCC[N+](C)(C)C [Hexamethonium bromide], N=C(N)c1ccc(OCCCCCOc2ccc(C(=N)N)cc2)cc1 [Pentamidine] is lower in “MBP+ mature oligodendrocyte number” value: -0.23 for the first, -5.93 for the second.

First: CC1CC(OC(=O)C(O)c2ccccc2)CC(C)(C)C1 (configuration not stated) [Cyclandelate]
Second: CC(CCc1ccccc1)NCC(O)c1ccc(O)c(C(N)=O)c1 (configuration not stated) [Labetalol hydrochloride]
The “MBP+ mature oligodendrocyte number” value of the first is higher: 4.8 for the first, under -3.97 for the second.

First: O=C(O)c1cccnc1Nc1cccc(C(F)(F)F)c1 [Niflumic acid]
Second: Cc1ccc(Nc2c(F)cccc2Cl)c(CC(=O)O)c1 [Lumiracoxib]
The “MBP+ mature oligodendrocyte number” value of the first is higher: 1.17 ± 0.73 for the first, 0.263 for the second.

Compared with Cc1cn([C@H]2O[C@@H](CO)[C@H](O)[C@H]2F)c(=O)[nH]c1=O [Clevudine], Cc1cn(C2C=CC(CO)O2)c(=O)[nH]c1=O (configuration not stated) [2',3'-didehydro-3'-deoxythymidine] is lower in “MBP+ mature oligodendrocyte number” value: 3.2 for the first, -0.439 for the second.

Compared with CCOC(=O)[C@H](CCc1ccccc1)N[C@@H](C)C(=O)N1Cc2ccccc2C[C@H]1C(=O)O [Quinapril HCl], CNCCCC1c2ccccc2C=Cc2ccccc21 [Protriptyline hydrochloride] is lower in “MBP+ mature oligodendrocyte number” value: -1.28 for the first, -3.67 for the second.

Compared with O=c1cc(-c2cccc3c2Sc2ccccc2S3)oc(N2CCOCC2)c1, OCCOCCN1CCN(C2=Nc3ccccc3Sc3ccccc32)CC1 [Quetiapine Fumarate] is higher in “MBP+ mature oligodendrocyte number” value: -3.99 for the first, -2.54 for the second.

Fc1ccc(C(c2ccc(F)cc2)N2CCN(C/C=C/c3ccccc3)CC2)cc1 [Flunarizine dihydrochloride] and CCC(=O)N1CCN(c2ccc(-n3c(=O)ccc4cnc5ccc(-c6cnc7ccccc7c6)cc5c43)cc2C(F)(F)F)CC1 [Torin 1] cannot be ordered by “MBP+ mature oligodendrocyte number” value: under -4.47 for the first, under -6.01 for the second.

First: Fc1ccc(C(c2ccc(F)cc2)N2CCN(C/C=C/c3ccccc3)CC2)cc1 [Flunarizine 2HCl]
Second: O=[N+]([O-])c1ccc(-c2nc(-c3ccc(F)cc3)c(-c3ccncc3)[nH]2)cc1
The “MBP+ mature oligodendrocyte number” value of the first is lower: -4.07 for the first, -3.21 for the second.

Going from Oc1ccc([C@H]2COc3cc(O)ccc3C2)cc1 [Equol] to N#Cc1c(O)c2c(-c3ccc(-c4ccccc4O)cc3)csc2[nH]c1=O, the “MBP+ mature oligodendrocyte number” value falls from 3.75 to 2.8.

First: CCCCC(=O)O[C@H]1CC[C@H]2[C@@H]3CCc4cc(O)ccc4[C@H]3CC[C@]12C [Estradiol valerate]
Second: C[C@]12CCC(=O)C=C1CC[C@@H]1[C@@H]2[C@@H](O)C[C@@]2(C)[C@H]1CC[C@]2(O)C(=O)CO [Hydrocortisone]
The “MBP+ mature oligodendrocyte number” value of the first is lower: 5.03 for the first, 5.93 ± 0.88 for the second.

Compared with N=C(N)c1ccc(OCCCCCOc2ccc(C(=N)N)cc2)cc1 [Pentamidine isethionate], Cc1onc(-c2ccccc2)c1-c1ccc(S(N)(=O)=O)cc1 [Valdecoxib] is higher in “MBP+ mature oligodendrocyte number” value: under -3.97 for the first, 6.74 for the second.

Compared with Cc1[nH]c2ccccc2c1CCNC(=O)c1cccs1, Cn1cnc2c(NCc3ccccc3)nc(NCCO)nc21 [Olomoucine] is higher in “MBP+ mature oligodendrocyte number” value: -0.745 for the first, 1.83 for the second.

Going from Cc1cc(C(=O)NOCCO)c(Nc2ccc(I)cc2F)n(C)c1=O to O=C(CCc1ccc(O)cc1)c1c(O)cc(O)cc1O[C@@H]1O[C@H](CO)[C@@H](O)[C@H](O)[C@H]1O [Phlorizin], the “MBP+ mature oligodendrocyte number” value rises from -0.892 to -0.668.

First: CC1(C)S[C@@H]2[C@H](NC(=O)[C@H](N)c3ccc(O)cc3)C(=O)N2[C@H]1C(=O)O [Amoxicillin]
Second: CCOC(=O)C1=C[C@@H](OC(CC)CC)[C@H](NC(C)=O)[C@@H](N)C1 [Oseltamivir phosphate]
The “MBP+ mature oligodendrocyte number” value of the first is higher: 0.819 for the first, -0.724 for the second.

Compared with COc1cccc2c1[C@@H]1CN(CCCCn3c(=O)[nH]c4c(sc5ncc(-c6ccccc6)nc54)c3=O)C[C@@H]1CO2 [Fiduxosin hydrochloride], CO/N=C(\C(=O)N[C@@H]1C(=O)N2C(C(=O)OCOC(=O)C(C)(C)C)=C(/C=C\c3scnc3C)CS[C@H]12)c1csc(N)n1 [Cefditoren Pivoxil] is higher in “MBP+ mature oligodendrocyte number” value: -4.31 for the first, 3.67 for the second.

Going from CN[C@@H]1[C@H](O[C@H]2[C@H](O[C@H]3[C@H](O)[C@@H](O)[C@H](N=C(N)N)[C@@H](O)[C@@H]3N=C(N)N)O[C@@H](C)[C@]2(O)C=O)O[C@@H](CO)[C@H](O)[C@H]1O [Streptomycin sulfate] to CN(N=O)C(=O)NC1C(O)OC(CO)C(O)C1O (configuration not stated) [Streptozotocin (STZ)], the “MBP+ mature oligodendrocyte number” value rises from -0.724 to 0.109.

Going from O=C(C=Cc1ccccc1)NC(NC(=S)Nc1ccc(Cl)cc1)C(Cl)(Cl)Cl (configuration not stated) to C=C[C@]1(C)C[C@@H](OC(=O)CS[C@@H]2C[C@H]3CC[C@@H](C2)N3C)[C@]2(C)[C@H](C)CC[C@]3(CCC(=O)[C@H]32)[C@@H](C)[C@@H]1O [Retapamulin], the “MBP+ mature oligodendrocyte number” value rises from -0.386 to 5.81.

For S=C(S)OC1CC2CC1C1CCCC21 [D-609 potassium], the “MBP+ mature oligodendrocyte number” value was -1.14.

Reference: the supplement of paper PMC6135742
